Experimental data published in patent US20220008391A1, “NOVEL COMPOUNDS FOR CONTROLLING ARTHROPODS” (Bayer Animal Health GmbH, priority 2018, published 2022).
At least one read-out could not be matched to a standard name with certainty.

Experiments:
Ctenocephalides felis = assay: Antiparasitic activity after administration to rats, fleas; assay type: in vivo; settings: sc; for Efficacy SD2: CF A (adult fleas), study day 2, 10 mg/kg parent compound A, vs placebo-treated control; for Efficacy SD2 / Efficacy SD9: 13.08-13.98 mg/kg prodrugs; for Efficacy SD9 / Efficacy SD16 / Efficacy SD23 / Efficacy SD30 / Efficacy SD37: CF A; for Efficacy SD9: study day 9, 10 mg/kg parent compound A; for Efficacy SD16: study day 16, 13.08-13.98 mg/kg prodrugs; for Efficacy SD23: study day 23, 13.08-13.98 mg/kg prodrugs; for Efficacy SD30: study day 30, 13.08-13.98 mg/kg prodrugs; for Efficacy SD37: study day 37, 13.08-13.98 mg/kg prodrugs
Procedure: (§1) Measurement of the Antiparasitic Activity after Administration of a Prodrug to Rats Compounds were dissolved in the appropriate volume of glycerol formal (p.a.) just before application to the animals (dose volume was adjusted to 0.03 mL/kg bodyweight). 5 rats per group were either injected intraperitoneally or subcutaneously. Rats were infested with 30 Dermacentor variabilis nymphs on study days −2, 7, 14, 21, 28, 35 and 30 adult Ctenocephalides fleas on study days −1, 8, 15, 22, 29, 36. […] Percent efficacy was calculated as arithmetic mean parasite numbers as life attached tick numbers and live flea numbers of the respective study group in comparison to parasite counts on a placebo-treated control group. Infestation of groups with less than 75% efficacy on two consecutive counting occasions will terminated for the respective parasite.

Dermacentor variabilis = assay: Antiparasitic activity after administration to rats, tick nymphs; assay type: in vivo; settings: sc; for Efficacy SD2: DV N (nymphs), study day 2, 10 mg/kg parent compound A, vs placebo-treated control; for Efficacy SD2 / Efficacy SD9: 13.08-13.98 mg/kg prodrugs; for Efficacy SD9 / Efficacy SD16 / Efficacy SD23 / Efficacy SD30 / Efficacy SD37: DV N; for Efficacy SD9: study day 9, 10 mg/kg parent compound A; for Efficacy SD16: study day 16, 13.08-13.98 mg/kg prodrugs; for Efficacy SD23: study day 23, 13.08-13.98 mg/kg prodrugs; for Efficacy SD30: study day 30, 13.08-13.98 mg/kg prodrugs; for Efficacy SD37: study day 37, 13.08-13.98 mg/kg prodrugs
Procedure: as §1

Compound | Efficacy SD2 (Ctenocephalides felis) | Efficacy SD9 (Ctenocephalides felis) | Efficacy SD16 (Ctenocephalides felis) | Efficacy SD23 (Ctenocephalides felis) | Efficacy SD30 (Ctenocephalides felis) | Efficacy SD37 (Ctenocephalides felis) | Efficacy SD2 (Dermacentor variabilis) | Efficacy SD9 (Dermacentor variabilis) | Efficacy SD16 (Dermacentor variabilis) | Efficacy SD23 (Dermacentor variabilis) | Efficacy SD30 (Dermacentor variabilis) | Efficacy SD37 (Dermacentor variabilis)
N#CC1(N(COC(=O)O[C@H]2CCC[C@H]2OC(=O)/C=C/C(=O)O)C(=O)c2cc(-c3cnn(-c4c(Cl)cc(C(F)(C(F)(F)F)C(F)(F)F)cc4OC(F)(F)F)c3)ccc2Cl)CC1 (relative stereo) [Example 6, (2E)-4-({(rel 1R,2S)-2-[({[(2-chloro-5-{1-[2-chloro-4-(1,1,1,2,3,3,3-heptafluoropropan-2-yl)-6-(trifluoromethoxy)phenyl]-1H-pyrazol-4-yl}benzoyl)(1-cyanocyclopropyl)amino]methoxy}carbonyl)oxy]cyclopentyl}oxy)-4-oxobut-2-enoic Acid] | 100% | 100% | 94% | 73% | 59% | 100% | 100% | 100% | 100% | 78% | 58% | 31%
N#CC1(N(COC(=O)O[C@H]2CCC[C@H]2OC(=O)CCC(=O)O)C(=O)c2cc(-c3cnn(-c4c(Cl)cc(C(F)(C(F)(F)F)C(F)(F)F)cc4OC(F)(F)F)c3)ccc2Cl)CC1 (relative stereo) [Example 7, 4-({(rel 1R,2S)-2-[({[(2-chloro-5-{1-[2-chloro-4-(1,1,1,2,3,3,3-heptafluoropropan-2-yl)-6-(trifluoromethoxy)phenyl]-1H-pyrazol-4-yl}benzoyl)(1-cyanocyclopropyl)amino]methoxy}carbonyl)oxy]cyclopentyl}oxy)-4-oxobutanoic Acid] | 100% | 98% | 99% | 91% | 86% | 66% | 99% | 100% | 96% | 98% | 89% | 46%
N#CC1(N(COC(=O)OCCOC(=O)/C=C/C(=O)O)C(=O)c2cc(-c3cnn(-c4c(Cl)cc(C(F)(C(F)(F)F)C(F)(F)F)cc4OC(F)(F)F)c3)ccc2Cl)CC1 [Example 1, (11E)-1-(2-Chloro-5-{1-[2-chloro-4-(1,1,1,2,3,3,3-heptafluoropropan-2-yl)-6-(trifluoromethoxy)phenyl]-1H-pyrazol-4-yl}phenyl)-2-(1-cyanocyclopropyl)-1,5,10-trioxo-4,6,9-trioxa-2-azatridec-11-en-13-oic Acid] | 100% | 100% | 100% | 99% | 81% | 75% | 99% | 100% | 100% | 100% | 77% | 90%
N#CC1(N(COC(=O)OCCCOC(=O)/C=C/C(=O)O)C(=O)c2cc(-c3cnn(-c4c(Cl)cc(C(F)(C(F)(F)F)C(F)(F)F)cc4OC(F)(F)F)c3)ccc2Cl)CC1 [Example 2, (12E)-1-(2-Chloro-5-{1-[2-chloro-4-(1,1,1,2,3,3,3-heptafluoropropan-2-yl)-6-(trifluoromethoxy)phenyl]-1H-pyrazol-4-yl}phenyl)-2-(1-cyanocyclopropyl)-1,5,11-trioxo-4,6,10-trioxa-2-azatetradec-12-en-14-oic Acid] | 99% | 93% | 99% | 97% | 66% | 76% | 98% | 98% | 96% | 99% | 99% | 97%
N#CC1(N(COC(=O)OCCOC(=O)CCC(=O)O)C(=O)c2cc(-c3cnn(-c4c(Cl)cc(C(F)(C(F)(F)F)C(F)(F)F)cc4OC(F)(F)F)c3)ccc2Cl)CC1 [Example 3, 1-(2-Chloro-5-{1-[2-chloro-4-(1,1,1,2,3,3,3-heptafluoropropan-2-yl)-6-(trifluoromethoxy)phenyl]-1H-pyrazol-4-yl}phenyl)-2-(1-cyanocyclopropyl)-1,5,10-trioxo-4,6,9-trioxa-2-azatridecan-13-oic Acid] | 97% | 97% | 93% | 86% | 76% | 72% | 99% | 99% | 100% | 77% | 57% | 49%
CC(C)(COC(=O)/C=C/C(=O)O)COC(=O)OCN(C(=O)c1cc(-c2cnn(-c3c(Cl)cc(C(F)(C(F)(F)F)C(F)(F)F)cc3OC(F)(F)F)c2)ccc1Cl)C1(C#N)CC1 [Example 4, (12E)-1-(2-chloro-5-{1-[2-chloro-4-(1,1,1,2,3,3,3-heptafluoropropan-2-yl)-6-(trifluoromethoxy)phenyl]-1H-pyrazol-4-yl}phenyl)-2-(1-cyanocyclopropyl)-8,8-dimethyl-1,5,11-trioxo-4,6,10-trioxa-2-azatetradec-12-en-14-oic Acid] | 99% | 93% | 99% | 97% | 66% | 76% | 98% | 98% | 96% | 99% | 99% | 97%
N#CC1(N(COC(=O)O[C@H]2CC[C@H](C(=O)O)CC2)C(=O)c2cc(-c3cnn(-c4c(Cl)cc(C(F)(C(F)(F)F)C(F)(F)F)cc4OC(F)(F)F)c3)ccc2Cl)CC1 [Example 18, Trans-4-[({[(2-chloro-5-{1-[2-chloro-4-(1,1,1,2,3,3,3-heptafluoropropan-2-yl)-6-(trifluoromethoxy)phenyl]-1H-pyrazol-4-yl}benzoyl)(1-cyanocyclopropyl)amino]methoxy}carbonyl)oxy]cyclohexane-1-carboxylic Acid] | 100% | 97% | 94% | 82% | 76% | 75% | 100% | 100% | 100% | 82% | 74% | 47%
N#CC1(N(COC(=O)OCC2(C(=O)O)CC2)C(=O)c2cc(-c3cnn(-c4c(Cl)cc(C(F)(C(F)(F)F)C(F)(F)F)cc4OC(F)(F)F)c3)ccc2Cl)CC1 [Example 35, 1-{[({[(2-chloro-5-{1-[2-chloro-4-(1,1,1,2,3,3,3-heptafluoropropan-2-yl)-6-(trifluoromethoxy)phenyl]-1H-pyrazol-4-yl}benzoyl)(1-cyanocyclopropyl)amino]methoxy}carbonyl)oxy]methyl}cyclopropane-1-carboxylic Acid] | 100% | 100% | 98% | 87% | 70% | 49% | 100% | 99% | 80% | 97% | 80% | 53%
N#CC1(N(COC(=O)OCCC(=O)O)C(=O)c2cc(-c3cnn(-c4c(Cl)cc(C(F)(C(F)(F)F)C(F)(F)F)cc4OC(F)(F)F)c3)ccc2Cl)CC1 [Example 36, 3-[({[(2-Chloro-5-{1-[2-chloro-4-(1,1,1,2,3,3,3-heptafluoropropan-2-yl)-6-(trifluoromethoxy)phenyl]-1H-pyrazol-4-yl}benzoyl)(1-cyanocyclopropyl)amino]methoxy}carbonyl)oxy]propanoic Acid] | – | 100% | 93% | 99% | 80% | 67% | – | 96% | 88% | 99% | 89% | 68%
N#CC1(NC(=O)c2cc(-c3cnn(-c4c(Cl)cc(C(F)(C(F)(F)F)C(F)(F)F)cc4OC(F)(F)F)c3)ccc2Cl)CC1 [Parent Compound A, 2-Chlor-5-{1-[2-chlor-4-(1,1,1,2,3,3,3-heptafluorpropan-2-yl)-6-(trifluormethoxy)phenyl]-1H-pyrazol-4-yl}-N-(1-cyanocyclopropyl)benzamide] | 53% | 44% | – | – | – | – | 72% | 61% | – | – | – | –
